{
  "source": "patent US20070015695A1",
  "about": "(NATIONAL JEWISH HEALTH, published 2007)",
  "binders": {"B1": {"name": "eBAFF-R, extracellular domain of BAFF-R ([…] of SEQ ID NO:8) (receptor)", "chain": "not shown", "notes": "Made as a GST fusion in pGEX4T-2 and cleaved with thrombin; […] are ordered in the model; also called BAFF-R/BR3 extracellular domain; soluble monomeric eBAFF-R"}},
  "target": "T1, soluble TALL-1 (sTALL-1), amino acids 134-285 of human TALL-1, His6-tagged, wild type (human, UniProt Q9Y275 in part)",
  "T1 construct": "Expressed in E. coli; Monomers form trimers, and at pH 7.4 and above a virus-like cluster of 60 monomers (20 trimers); Immobilised as 'wild type multimeric sTALL-1' in the BIAcore assay; also called wild type sTALL-1; native sTALL-1; not shown: N-terminal His6 tag from vector pET14b",
  "T1 sequence (Q9Y275 134-285)": "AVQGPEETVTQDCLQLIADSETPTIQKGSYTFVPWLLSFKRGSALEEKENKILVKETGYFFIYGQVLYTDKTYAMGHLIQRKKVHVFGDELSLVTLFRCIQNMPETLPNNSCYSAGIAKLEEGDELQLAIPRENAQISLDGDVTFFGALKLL",
  "assay": "co-expression, gel filtration at 100 mM to 1 M NaCl and SDS gel analysis, ratio 1:1",
  "method": "However, four lines of evidence support the present inventors' belief that the crystal structure described herein reflects the actual interactions of the complexes in solution and in vivo. First, co-expression of sTALL-1 with eBCMA or eBAFF-R generates the virus-like cluster in solution as judged by gel-filtration column and […] analysis at a ratio of 1:1 (sTALL-1: eBCMA or eBAFF-R). Different salt concentrations (from 100 mM to 1 M NaCl) produce the same elution profile, in which complexes of sTALL-1 with eBCMA or eBAFF-R elute at a void volume on superdex-200. Thus, binding between ligand and receptors is stable and insensitive to salt concentrations. Purified samples of the preformed complexes were subjected to crystallization trials. Crystals of both complexes have been obtained, however neither of them diffracted. The results further confirmed that the “flap” region of TALL-1 which is involved in clustering, is not part of the receptor binding site. […] Second, in the receptor soaked sTALL-1 crystals, all seven fully occupied receptors and one partial receptor have equivalent binding sites on sTALL-1 in the asymmetry unit, so the binding is highly specific. Third, eBCMA and eBAFF-R have a similar binding mode and occupy the same site on sTALL-1. […]",
  "data": [
    {"binder": "B1", "values": [
      {"measurement": "binding result", "result": "binds"}
    ]}
  ]
}
